Measured values reported in PubChem BioAssay AID1346428 (National Center for Advancing Translational Sciences (NCATS), 2018).
In all, about 48,000 compounds went through this assay and about 1,200 (2.5%) were called active. Roughly 2% stayed inconclusive and do not appear here.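 The calls were made as follows: active = activation of at least 60% and not above a set upper limit (about 1 call in 100 departs from these limits); inconclusive = activation of 40% to 60%, or above that upper limit; inactive = activation under 40%.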 Some of the results follow.

Molecular target: Probable G-protein coupled receptor 32 (Homo sapiens) (UniProt O75388)
Chain of UniProt O75388 (O75388 whole entry, looked up): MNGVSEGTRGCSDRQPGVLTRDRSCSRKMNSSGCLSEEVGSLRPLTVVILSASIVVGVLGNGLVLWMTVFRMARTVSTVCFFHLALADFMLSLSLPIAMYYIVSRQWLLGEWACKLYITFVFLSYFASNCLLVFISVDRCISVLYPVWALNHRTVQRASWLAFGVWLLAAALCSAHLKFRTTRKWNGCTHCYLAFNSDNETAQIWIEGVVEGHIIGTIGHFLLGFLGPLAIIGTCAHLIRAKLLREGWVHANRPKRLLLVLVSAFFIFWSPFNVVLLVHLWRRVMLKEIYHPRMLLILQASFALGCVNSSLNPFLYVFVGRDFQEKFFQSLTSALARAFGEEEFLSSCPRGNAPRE
Experiment: qHTS for Agonists of Human Resolvin D1 Receptor DRV1; also: 0% is about no effect
Conditions: CHO-K1 GPR32 beta-arrestin PathHunter luminescence, 90 min; at 76.9 µM; stronger effect = higher value; zero percent set by DMSO-only wells
Outline: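 Engineered CHO-K1 line co-expressing GPR32-ProLink and EA-beta-arrestin. Compound treatment lasted 90 min at 37 °C. Luminescence was recorded after 1 h with substrate at ambient temperature, relative to DMSO basal wells.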

activation, inactive:
COc1ccc(-c2nsc(NC(=O)c3oc4ccccc4c3C)n2)cc1 -19.3%
CCCNc1ncnc2c1c(-c1ccccc1)cn2-c1ccccc1 -40.1%
C[C@]12CC[C@@H]3c4ccc(O)cc4CC[C@H]3[C@@H]1CC[C@@H]2OC(=O)CCC1CCCC1 30.8%
COCCn1c(C)cc(O)c(C(c2ccccc2Cl)N2CCCCC2)c1=O (centres undefined) -2.9%
CCCN1CCN(CCCNC(=O)c2cc3c(s2)-c2ccccc2OC3)CC1 18.5%
N#Cc1ccccc1OCC(=O)N1CCN(c2ccccc2)CC1 5.81%
CN(C)c1ccc(CNC(=O)CCCN2C(=O)CCn3nc(-c4cn(C)c5ccccc45)cc32)cc1 -6%
O=C(Cn1ccc2cc(S(=O)(=O)N3CCCCCC3)ccc21)NCc1cccc(Cl)c1 -2.23%
Cc1coc2c(C)c3oc(=O)c(CCC(=O)N4CCCCC4)c(C)c3cc12 -14.8%
Cc1nc2c(c(C)c1CCC(=O)Nc1ccc(F)cc1)c(=O)n(C)c(=O)n2C 21.5%
Cc1c(NS(=O)(=O)c2ccc(Cl)cc2)c(=O)n(-c2ccccc2)n1C -9.35%
Cc1ccc(Cn2cc(CCC(=O)NCC(C)c3ccccc3)c3ccccc32)cc1 (centres undefined) -22.8%
COc1ccc(NC(=O)Cn2nnc(-c3nc(-c4ccncc4)no3)c2N)cc1OC -5.02%
Cc1cccc(C)c1NC(=O)C1CCCN1S(=O)(=O)c1cccc2nsnc12 (centres undefined) -2.36%
CCc1cccc(-n2nnc(S(=O)(=O)c3ccc(OC)cc3)c2C)c1 30.3%
COc1ccc(C2=NN(CCC(=O)NCCc3ccccc3)C(=O)CC2)cc1 -12.8%
COCCn1c(C)cc(O)c(C(c2ccccc2F)N2CCN(c3ccccc3)CC2)c1=O (centres undefined) -12.3%
COc1ccccc1CCNC(=O)C(=O)NCC(c1cccnc1)N1CCN(c2ccccc2)CC1 (centres undefined) -12.6%
Cc1ccc(NC(=O)c2cccc(NC(=O)N3CCSc4ncccc43)c2)cc1F 2.96%
CCOc1ccc(CNC(=O)c2ccc(NC(=O)N3CCSc4ncccc43)cc2)cc1 6.51%
COc1ccc(-c2cc(C(F)(F)F)nc(SCC(=O)Nc3ccc(O)cc3)n2)cc1OC -1.21%
Cc1ccc(C)c(NC(=O)c2cnc3sc(N4CCOCC4)nn3c2=O)c1 -6.11%
CCN(CC)CCCNC(=O)CCc1c(C)nc2c(c1C)c(=O)n(C)c(=O)n2C 7.85%
CCCN1C(=O)c2oc3cc(C)cc(C)c3c(=O)c2C1c1ccc(F)cc1 (centres undefined) -0.38%
CCCCOCCOC(=O)c1cccnc1 35.4%
Cc1cc(=O)c2cc(C(=O)Nc3cccc(C)c3C)ccc2[nH]1 -3.21%
COc1ccc(-c2nc3cc(NC(=O)COc4ccc(C)c(C)c4)ccc3o2)cc1 12.1%
COc1ccc(C(=O)NCc2nc(-c3cccc(C)c3)no2)cc1OC -7.24%
Cc1cc(NS(=O)(=O)c2cn(C)c(C)n2)ccc1Br 10%
COc1cccc(C(=O)COC(=O)c2cc(-c3cccs3)nc3ccccc23)c1 -5.02%
Cc1ccccc1OCC(=O)Nc1nnc(SCc2cc(=O)n3cc(Cl)ccc3n2)s1 -4.36%
COc1cccc(CNC(=O)CCc2c(C)nc3c4c(C)cc(C)nc4nn3c2C)c1 -21.4%
Cc1ccc(CCNc2nc3ccccc3c3nc(-c4cccnc4)nn23)cc1 18.2%
Cc1ccc(-n2nc(C)c(C(=O)NCCCN3CCN(c4cccc(Cl)c4)CC3)c2-n2cccc2)cc1 -9.8%
CCc1ccccc1NC(=O)C1CCN(c2nc3ccccc3[nH]2)CC1 -18.7%
Cc1ccc(C)c(CN2C(=O)c3ccccc3S(=O)(=O)c3ccc(C(=O)NCCc4ccc(Cl)cc4)cc32)c1 -4.88%
CCOC(=O)c1c(C)[nH]c(C)c1S(=O)(=O)NCC(=O)NCc1cccc(Br)c1 -11.3%
CC(C)CCSc1nnc2n(-c3ccccc3)c(=O)c3c4c(sc3n12)CC(C)CC4 (centres undefined) -0.155%
CCc1ccc(NC(=O)Cn2c(=O)nc(-c3ccccc3F)c3cc(Cl)ccc32)cc1 -10.1%
COC(=O)c1ccccc1N(C)S(=O)(=O)c1cc2c3c(c1)CC(=O)N3CCC2 -18.4%
Cc1cc(C)nc(-n2nc(C)c3c2N(Cc2ccccc2C)C(=O)CC3c2ccc(Cl)cc2)n1 (centres undefined) -8.1%
COc1cccc(NC(=O)/C(C#N)=C/c2ccc(-c3ccc(C)cc3)o2)c1 -24.9%
Cc1ccc2cc3cc(C(=O)N4CCN(c5ccccc5)CC4)sc3nc2c1 -12.9%
O=C(Cn1cc(S(=O)(=O)Cc2cccc(Cl)c2)c2ccccc21)NCc1ccccc1Cl -2.01%
Cc1ccc(S(=O)(=O)Nc2cccc(-c3ccc(N4CCCC4)nn3)c2)c(C)c1 -4.77%
Cc1ccc(CNC(=O)CCn2cnc3ccccc3c2=O)cc1 -4.54%
Cc1ccc2nc(Nc3ccc(C)c(F)c3)c3nncn3c2c1 -15.6%
Cc1c(Cl)cccc1NC(=O)C1CCN(c2ncnc3c2nc2n3CCCCC2)CC1 -15.2%
COc1ccccc1CN1C(=O)CN(C2CCCCCC2)C(=O)C1c1ccc(F)cc1 (centres undefined) -26.3%
CCN(C(=O)Nc1cn(CC(C)C)c(=O)c2ccccc12)c1cc(C)ccc1C -6.15%
CCOC(=O)c1cnn(-c2ccc(C(=O)Nc3cccc(C(C)=O)c3)cc2)c1N -0.223%
Cc1ccc(N2CC(NC(=O)c3ccc(S(=O)(=O)N4CCOCC4)cc3)CC2=O)cc1 (centres undefined) 9.68%
CCn1nc(C)c(CCN(C)C(=O)Nc2cc(OC)c(OC)c(OC)c2)c1C -4.63%
O=C(COCc1cc(-c2cccs2)on1)N1CCN(c2cccc(Cl)c2)CC1 -9.56%
